Measurements taken from article PMC7564666.
Substitutions are numbered along the chain they refer to. Results are given in words; binding and its absence hold for the method and conditions named. For part of these data: In cells and extracts the contact can be indirect. Some binding calls cover weakened binding; strength is not graded here. For part of these data: Where a sequence is shown, tags or fusion partners need not be part of it.

By UniProt entry, the sequences of proteins in these tests, tags left out.
UniProt Q9UKV8: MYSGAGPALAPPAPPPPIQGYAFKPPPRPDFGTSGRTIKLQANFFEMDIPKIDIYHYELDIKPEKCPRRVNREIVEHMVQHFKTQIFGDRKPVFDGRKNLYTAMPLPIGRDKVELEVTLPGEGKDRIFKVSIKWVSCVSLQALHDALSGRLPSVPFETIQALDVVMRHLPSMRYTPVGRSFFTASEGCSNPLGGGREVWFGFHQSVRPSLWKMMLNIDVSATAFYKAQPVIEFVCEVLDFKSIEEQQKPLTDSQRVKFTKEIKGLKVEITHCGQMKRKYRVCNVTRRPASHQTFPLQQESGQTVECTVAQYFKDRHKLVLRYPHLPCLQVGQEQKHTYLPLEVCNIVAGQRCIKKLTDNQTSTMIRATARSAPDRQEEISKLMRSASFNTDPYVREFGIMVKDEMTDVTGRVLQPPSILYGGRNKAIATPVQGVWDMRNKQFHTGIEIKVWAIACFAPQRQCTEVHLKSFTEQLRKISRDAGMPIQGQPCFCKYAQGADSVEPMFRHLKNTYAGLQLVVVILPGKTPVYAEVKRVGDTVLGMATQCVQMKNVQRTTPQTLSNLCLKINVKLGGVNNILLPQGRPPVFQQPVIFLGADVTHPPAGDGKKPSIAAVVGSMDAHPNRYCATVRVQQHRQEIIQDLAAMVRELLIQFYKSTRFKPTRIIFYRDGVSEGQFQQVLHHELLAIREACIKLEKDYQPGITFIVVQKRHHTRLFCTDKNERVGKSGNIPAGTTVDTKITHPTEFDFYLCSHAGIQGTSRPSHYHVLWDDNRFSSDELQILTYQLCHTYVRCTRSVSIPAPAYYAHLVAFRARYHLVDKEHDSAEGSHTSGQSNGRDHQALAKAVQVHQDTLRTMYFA

Assays:
[1] = target: T1, GST-LASP1 LIM domain (residues 1–60) (human) (UniProt Q14847); assay: pull-down; direct binding: 1.5 nmol GST-LASP1, its domains or its phospho-mutants on glutathione-agarose beads with 100–200 ng of purified recombinant Ago2, 2 h at 4 °C, washed with lysis buffer; Western blot; both purified
T1 sequence: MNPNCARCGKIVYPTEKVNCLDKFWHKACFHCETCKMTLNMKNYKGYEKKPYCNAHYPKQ

[2] = target: T2, GST-LASP1 (full length LIM and SH3 Protein 1, residues 1–261) (human) (UniProt Q14847); assay: as above
T2 sequence: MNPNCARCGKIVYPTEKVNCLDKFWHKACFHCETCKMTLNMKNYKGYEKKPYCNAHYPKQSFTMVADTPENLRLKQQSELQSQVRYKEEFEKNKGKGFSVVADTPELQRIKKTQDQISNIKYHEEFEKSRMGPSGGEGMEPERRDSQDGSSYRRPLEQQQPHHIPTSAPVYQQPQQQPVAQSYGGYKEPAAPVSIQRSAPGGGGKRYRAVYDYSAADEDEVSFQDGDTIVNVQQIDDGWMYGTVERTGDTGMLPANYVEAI

[3] = target: T3, GST-LASP1 S146A (human) (UniProt Q14847); assay: as above
T3 sequence: T2 sequence with S146A

[4] = target: T4, GST-LASP1 S146D (human) (UniProt Q14847); assay: as above
T4 sequence: T2 sequence with S146D

[5] = target: T5, GST-LASP1 S146D/Y171F (human) (UniProt Q14847); assay: as above
T5 sequence: T2 sequence with S146D, Y171F

[6] = target: T6, LIM and SH3 Protein 1 (LASP1), endogenous (human (endogenous in MDA-MB-231 variants 231S and Bone-Un)) (UniProt Q14847); assay: co-IP; 231S cells serum starved 1 h, stimulated with 20 nM CXCL12 for 0–60 min; 1 mg lysate in Co-IP buffer, immunoprecipitated with mouse anti-LASP1 and protein G Dynabeads, 2 h at 4 °C; blotted for Ago2 and LASP1
T6 sequence: T2 sequence

What does the source list for “purified recombinant Ago2 (from UniProt Q9UKV8 1-859)”?
binding [1]: binds; binding [2]: binds; binding [3]: binds; binding [4]: binds; binding [5]: binds weakly

Which binding [6] does the source give for “argonaute 2 (Ago2), endogenous (from UniProt Q9UKV8 1-859)” here?
The binding was “binds”.
